# Among all 43,000 compounds or so, about 200 (0.47%) were called active. Inconclusive results (about 12%) are left out. The call rests on the fitted dose curve; in most records, active means well fitted cell-killing curve with a large enough effect; inconclusive means small, poorly fitted or top-dose-only effect, or effect the other way; inactive means flat fitted curve, though single readings scatter. The list shows a part of the results.
# Assay: Cell viability qHTS assay in S16 Pmp22-F2sN cells; further: nearly all actives have a fitted effect of over 65% in size
# Conditions: S16 Pmp22-F2sN Schwann cells (luciferase reporters placed in the Pmp22 gene) viability, CellTiter-Glo, 24 h; series mostly up to 57.5 µM; activity change, negative = cytotoxicity: at the top concentration
# Method in brief: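 Seed 500-1,000 S16 Pmp22-F2sN cells per well in phenol-red-free DMEM with 10% heat-inactivated FBS; pin-add 23 nL compound; incubate 24 h at 37C; add CellTiter-Glo, wait 15 min protected from light; read luminescence.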
# On the % scale 0 is the no-effect control and ±100 the full control effect; potency means the concentration at half of the fitted maximal effect.
SMILES,"activity change, negative = cytotoxicity",Potency
CCc1cccc(NC(=O)CCNS(=O)(=O)c2cccc3nonc23)c1,inactive: 5.94%,
COc1ccccc1NC(=O)C1=C(C)Nc2nnnn2C1c1ccc(C(F)(F)F)cc1 (stereo unspecified),inactive: 0.628%,
Cc1ccc(-n2nnnc2CNC(=O)c2cc(C(F)(F)F)cc(C(F)(F)F)c2)cc1C,inactive: -13.3%,
COc1cccc(CNC(=O)COc2cc(=O)n(C)c3ccccc23)c1,inactive: -2.51%,
O=C(Nc1cccc(C(F)(F)F)c1)c1cc(CN2CCOCC2)on1,inactive: -0.311%,
COc1ccc(S(=O)(=O)Nc2ccc(-c3cn4c(C)csc4n3)cc2)cc1,inactive: -20.9%,
Cc1ccc(N2CCN(S(=O)(=O)c3cccc4ccccc34)CC2)cc1Cl,inactive: -17.1%,
COc1ccccc1S(=O)(=O)Cc1ccc(C(=O)NCc2ccc(Cl)cc2)o1,inactive: 2.75%,
COc1ccccc1NC(=O)c1sc2nc(C)c(C(=O)Nc3ccc(C)cc3C)c(-c3ccco3)c2c1N,inactive: -1.14%,
CC(C)c1ccc(NC(=O)c2ccc(F)c(S(=O)(=O)N3CCc4ccccc43)c2)cc1,inactive: -5.43%,
O=C(C1CCCN(S(=O)(=O)c2cccc3nsnc23)C1)N1CCN(c2ccccc2F)CC1 (stereo unspecified),inactive: -12.8%,
CCC(C)NC(=O)CSc1nc2n[nH]c(C)c2c(=N)n1-c1cc(Cl)ccc1C (stereo unspecified),inactive: 0.266%,
CCC1=Nc2cc(C(=O)NC3CCC(C)CC3)ccc2Sc2ccc(C)cc21 (stereo unspecified),inactive: -2.75%,
CCC1CN(C(=O)N2CCC(C(=O)NCc3cccc(OC)c3OC)CC2)c2cc(C)ccc2O1 (stereo unspecified),inactive: -18.3%,
CCc1ccc(NC(=O)CCn2c(=O)c3cccn3c3ccccc32)cc1,inactive: -8.94%,
Cc1ccccc1NC(=O)CSc1nc2ccc(NC(=O)c3cccs3)cc2s1,inactive: -0.202%,
CSc1cccc(NC(=O)c2cccc(N3CCCS3(=O)=O)c2)c1,inactive: -21.2%,
COc1cccc(-c2noc(C3CC(=O)N(c4ccc(F)cc4)C3)n2)c1OC (stereo unspecified),inactive: 7.87%,
COc1ccccc1CNC(=O)c1cc2sccc2n1Cc1ccc(Cl)cc1,inactive: 7.56%,
Cc1cccc(NC(=O)COC(=O)CCCC2=NS(=O)(=O)c3ccccc3N2)c1,inactive: 0.825%,
COc1ccc(S(=O)(=O)c2cn(C)c3ccc(C)cc3c2=O)cc1,inactive: 4.51%,
O=C(Nc1ccc(F)cc1C(F)(F)F)C1CCN(c2ncccn2)CC1,inactive: 0.929%,
Cc1cccc(NC(=O)c2c(C)cc(C)nc2SCC(=O)c2ccccc2)c1,inactive: -19.2%,
Cc1ccc(-n2cc(C(=O)Oc3cccc(C)c3)c3ccccc3c2=O)cc1,inactive: -1.33%,

SMILES,"activity change, negative = cytotoxicity",Potency
O=c1c2ccccc2n(Cc2ccccc2Cl)c(=O)n1CCc1ccccc1,inactive: 7.47%,
CCOC(=O)c1ccc(Nc2nc3ccc(C(=O)c4ccccc4)cc3n3c(C)nnc23)cc1,inactive: -0.832%,
CCCN(CCC)C(=O)Cn1c(=O)n(-c2ccc(CC)cc2)c(=O)c2ccc(C(=O)NCCc3ccccc3)cc21,inactive: 2.45%,
COc1ccc(CCNC(=O)c2ccc3c(c2)CCN3S(=O)(=O)c2ccc(C)cc2)cc1,inactive: -6.27%,
CC(C)(C)OC(=O)N1CCC(c2c(C(=O)NC3CCN(Cc4ccccc4)CC3)cnn2-c2ccc(F)cc2F)CC1,inactive: -22.2%,
CCOc1ccc(NC(=O)C(=O)c2cc(C)n(-c3cc(C)cc(C)c3)c2C)cc1,inactive: 9.03%,
Cc1ccc(NC(=O)C2CCCN(S(=O)(=O)c3ccc4c(c3)oc(=O)n4C)C2)cc1Cl (stereo unspecified),inactive: 2.4%,
COc1ccc(-c2cc(C(=O)NCCc3ccccc3)c3c(-c4ccccc4)[nH]nc3n2)cc1OC,inactive: -25.6%,
CCCCCOc1ccc(Cn2c(=O)oc3ccccc32)cc1,inactive: -0.738%,
COc1cc(Cl)c(NC(=O)CCS(=O)(=O)c2ccc3c(c2)NC(=O)CO3)c(OC)c1,inactive: 0.0347%,
COc1ccc(NC(=O)c2c(NCc3sccc3C)sc3c2CCCC3)c(OC)c1,inactive: 19%,
CCc1nn2c(=O)cc(COC(=O)CNC(=O)COc3ccc(C)cc3)nc2s1,inactive: 28.1%,
CCCn1c(=O)sc2cc(NC(=O)c3ccc(OC)c(Br)c3)ccc21,inactive: -28.5%,
Cc1ccc(-n2nc(CO)c(C(=O)NC(C)CCCc3ccccc3)n2)cc1 (stereo unspecified),inactive: -0.328%,
COc1ccc(Nc2nc(N)nc(N)c2S(=O)(=O)c2ccccc2)cc1,inactive: 29.2%,
Cc1cn(C)c(CC(=O)N2CCN(c3cccc(Cl)c3)CC2)c1C(=O)O,inactive: -1.97%,
Cc1ccc(NC(=O)CN2CCN(S(=O)(=O)c3ccc(C(C)C)cc3)CC2)cc1F,inactive: -29.7%,
Cc1cccc(C2C=C(c3ccc(C)c(C)c3)Nc3nnnn32)c1 (stereo unspecified),inactive: -4.01%,
CCOc1ccccc1C(=O)NC1(C(F)(F)F)NC(=O)N(CCc2ccc(OC)c(OC)c2)C1=O (stereo unspecified),inactive: -0.421%,
COc1cc(OC)cc(-c2cc3nc(C)c(CCC(=O)NCc4ccccc4)c(C)n3n2)c1,inactive: -5.27%,
O=C(Nc1ccc(O)c(-c2nc3ccccc3o2)c1)c1sc2ccccc2c1Cl,inactive: 1.45%,
O=C(CSCc1cnn(-c2ccccc2)c1-n1cccc1)NCc1ccc(Cl)cc1,inactive: 2.81%,
O=C(Nc1nnc(S(=O)(=O)N2CCCc3ccccc32)s1)c1ccccc1Cl,inactive: 4.27%,
CCOc1ccccc1NC(=O)Cn1ncc2c(=O)oc3ccc(C)cc3c21,inactive: 0.932%,

SMILES,"activity change, negative = cytotoxicity",Potency
CCOC(=O)c1c(C)oc2ncnc(Nc3ccc(OC)cc3OC)c12,inactive: 12.6%,
COc1ccccc1NC(=O)CSC1=Nc2ccccc2C2=NC(CCC(=O)NCCc3ccccc3)C(=O)N12 (stereo unspecified),inactive: -0.0569%,
CCOc1ccccc1CNC(=O)C1CCN(S(=O)(=O)c2ccc3[nH]c(=O)ccc3c2)CC1,inactive: 15.4%,
CN1C(=O)Cc2cc(S(=O)(=O)NCCc3ccc(Cl)cc3)ccc21,inactive: 0.369%,
COc1ccc(-c2noc(CSc3nnc(C)n3-c3ccc(C)cc3)n2)cc1OC,inactive: -17.7%,
O=C(Nc1nc2c(s1)CCCCCC2)Nc1ccc(F)cc1F,inactive: -0.109%,
COc1ccc(N2CCN(C(c3ccccc3)c3sc4nc(-c5ccco5)nn4c3O)CC2)cc1 (stereo unspecified),inactive: 8.64%,
Cc1ccc(C(=O)Nc2cc(-c3nc4ncccc4o3)ccc2C)c(C)c1,inactive: -1.33%,
COCc1nn2cc(-c3ccc(C)cc3)nc2s1,inactive: -9.1%,
Cc1cccc(N2CCN(C(=O)Cc3c(C(=O)O)c(C)cn3C)CC2)c1C,inactive: 0.768%,
CC(=O)N1CCc2c(sc3c2c(=O)n(Cc2ccccc2)c(=O)n3Cc2ccc(C)cc2)C1,inactive: 0.962%,
COC(=O)c1ccc(Cn2cnc3nc4c(cc3c2=O)CCCC4)cc1,inactive: 2.81%,
CC(=O)c1ccc(N2CCN(C(=O)C3CCN(S(=O)(=O)c4c(C)noc4/C=C/c4ccc(C)cc4)CC3)CC2)cc1,inactive: -7.68%,
CCOCCCNC(=O)C1CCN(C(=O)c2cc3sccc3n2C)CC1,inactive: -1.71%,
CCC(Cc1ccccc1)NC(=O)CN1C(=O)COc2ccc(S(=O)(=O)N3CCCCCC3)cc21 (stereo unspecified),inactive: 3.52%,
Cc1cc2c(cc1NC(=O)c1ccccc1C)n(C)c(=O)c(=O)n2C,inactive: 9.33%,
COc1ccc(CCNC(=O)CCCn2c(=O)c3cccn3c3ccccc32)cc1OC,inactive: 5.04%,
O=C(COc1ccccc1)OCc1cc(=O)n2nc(C3CC3)sc2n1,inactive: -4.13%,
COc1cc(-c2nnc(SCCOc3ccc(Cl)cc3)o2)cc(OC)c1OC,inactive: 1.02%,
CCc1ccc(CNC(=O)CCCN2C(=O)CCn3nc(-c4cccn4C)cc32)cc1,inactive: 18.5%,
COc1ccc(NC(=O)CCCN2C(=O)C(c3ccccc3)Oc3cccnc32)c(OC)c1 (stereo unspecified),inactive: 8.7%,
CCc1ccc2oc(C(=O)Nc3cccc(Cl)c3C)cc(=O)c2c1,inactive: -5.12%,
CC(C)CCN(Cc1ccco1)C(=O)c1cc2c(s1)-c1ccccc1OC2,inactive: 2.92%,
O=C(CSc1c2c(nc3ccc(Cl)cc13)CCCC2)NCc1ccccc1Cl,,active: 22.4 µM

SMILES,"activity change, negative = cytotoxicity",Potency
COc1ccc(CCNC(=O)c2cc(=O)c3cc(C)cc(C)c3o2)cc1OC,inactive: 1.23%,
N=c1n(CCO)c2ccccc2n1Cc1ccccc1F,inactive: 0.993%,
COc1ccc(Br)c(C(=O)Nc2cc3c(cc2N2CCCC2)n(C)c(=O)c(=O)n3C)c1,inactive: 2.05%,
Cc1ccc(-c2cc(C(=O)OCC(=O)c3ccccc3)c3cccc(Cl)c3n2)cc1,inactive: -3.82%,
O=C(OCc1ccco1)c1ccc2c(c1)N(Cc1cccc(F)c1)C(=O)c1ccccc1S2,inactive: 21.4%,
Cc1cc(N(C)Cc2ccccc2)n2nc(-c3ccc(C(C)(C)C)cc3)nc2n1,inactive: 1.94%,
CCCCNC(=O)c1cccc(-n2cnc3cccnc32)c1C,inactive: 2.71%,
CC1CCCCN1C(=O)c1ccc2c(c1)N(Cc1cccc(Cl)c1)C(=O)c1ccccc1S2=O (stereo unspecified),inactive: -11.9%,
CCC(NC(=O)Nc1cc(Cl)ccc1OC)c1c(-n2cccc2)sc2c1CCN(C)C2 (stereo unspecified),inactive: -20.8%,
CCCCCn1c(=O)[nH]c2cc(C(=O)NCCN(C)CCCC)ccc2c1=O,inactive: -11.1%,
COc1ccc(OCCn2nnc3sc4c(c3c2=O)CCC(C(C)(C)C)C4)cc1 (stereo unspecified),inactive: 12.7%,
CC1CCN(c2nc3c(-c4cccc(Br)c4)nnn3c3ccccc23)CC1,inactive: 11.7%,
CCc1ccc(-n2nc3cc(C)c(NC(=O)c4ccccc4C)cc3n2)cc1,inactive: -2.56%,
CCOc1ccc(-c2c(C)nn3c(C)c(C(=O)NCc4ccc(Cl)cc4)cnc23)cc1OCC,inactive: 3.55%,
Cc1cc(C)c2c(=O)cc(C(=O)Nc3nc4ccc(F)cc4s3)oc2c1,inactive: 5.41%,
CCC(CC)C(=O)Nc1c(C(=O)N2CCN(c3ccccc3)CC2)oc2ccccc12,inactive: -3.03%,
Cc1ccc(CNS(=O)(=O)c2ccc(-c3cnc(C4CC4)o3)cc2)cc1,inactive: -24.8%,
CCc1cccc(NC(=O)Cn2c(=O)c(C(F)(F)F)nc3ccccc32)c1,inactive: 0.466%,
Cc1cccc(CSc2nc3cc(C(=O)NC4CCCC4)ccc3c(=O)n2Cc2ccccc2)c1,inactive: 0.813%,
Cc1coc2cc3oc(=O)c(CC(=O)N4CCCCC4)c(C)c3cc12,inactive: 11%,
COc1ccc(CCNc2nc(-c3ccc(Cl)cc3)cc(C(F)(F)F)n2)cc1OC,inactive: 6.83%,
CCOC(=O)c1c(C)[nH]c(C)c1S(=O)(=O)N1CCC(C(=O)N2CCN(c3cccc(C)c3C)CC2)CC1,inactive: -20.2%,
COc1ccccc1-c1nc2c(c(SCc3ccc(F)cc3Cl)n1)Cc1c(CO)cnc(C)c1O2,inactive: -3.47%,
COC(=O)c1ccc(NC(=O)CCc2c(C)nn(-c3ccc(N4CCOCC4)nn3)c2C)cc1,inactive: -5.68%,

# Source: PubChem BioAssay AID1508642 (National Center for Advancing Translational Sciences (NCATS), 2021)
